{"source": "paper PMC6919601", "about": "“Identification of Plasmodium dipeptidyl aminopeptidase allosteric inhibitors by high throughput screening” (PLoS ONE, 2019)", "note": "The whole screen tested about 110,000 compounds, of which about 230 (0.21%) showed an effect of 50% or more. This is one part of the list.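 Note: 30 min substrate incubation versus DMSO and 10 µM JCP410 controls.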", "data": [{"biological_target": "DPAP1 (Plasmodium falciparum, UniProt Q8IIJ9)", "sequence (Q8IIJ9 whole entry, looked up)": "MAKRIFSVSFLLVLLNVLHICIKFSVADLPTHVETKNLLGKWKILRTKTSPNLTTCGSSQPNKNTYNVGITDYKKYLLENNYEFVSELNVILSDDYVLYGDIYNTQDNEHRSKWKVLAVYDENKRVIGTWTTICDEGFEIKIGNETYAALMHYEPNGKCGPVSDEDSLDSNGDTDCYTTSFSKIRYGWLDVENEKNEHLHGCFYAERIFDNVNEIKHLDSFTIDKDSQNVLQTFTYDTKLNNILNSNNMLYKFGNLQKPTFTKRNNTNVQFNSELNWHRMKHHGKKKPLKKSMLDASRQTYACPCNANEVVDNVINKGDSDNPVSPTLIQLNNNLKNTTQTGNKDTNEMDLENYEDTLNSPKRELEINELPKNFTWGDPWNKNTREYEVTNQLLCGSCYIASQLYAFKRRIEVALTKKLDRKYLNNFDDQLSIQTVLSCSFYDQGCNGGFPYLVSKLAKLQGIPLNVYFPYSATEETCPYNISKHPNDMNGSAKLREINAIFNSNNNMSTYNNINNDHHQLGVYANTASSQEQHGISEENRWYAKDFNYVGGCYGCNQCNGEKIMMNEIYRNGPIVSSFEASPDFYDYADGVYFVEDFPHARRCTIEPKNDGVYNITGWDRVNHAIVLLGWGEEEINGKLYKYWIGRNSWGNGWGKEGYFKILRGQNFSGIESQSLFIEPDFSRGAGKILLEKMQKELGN", "test": "primary screen, percent inhibition; read by cleavage of a fluorogenic dipeptide substrate; higher = more effect of the substance", "parameters": "species or system P. falciparum D10 trophozoite lysates; single well", "units": {"% Inhibition @ 10 uM": "%"}, "values": [{"smiles": "COC(=O)c1sccc1NC(=O)c1ccc2c(Cl)c3c(nc2c1)CCCC3", "% Inhibition @ 10 uM": -0.352}, {"smiles": "O=C(NCC1COc2ccccc2O1)C(NS(=O)(=O)c1cccc2nsnc12)c1ccccc1", "note": "(stereo not shown)", "% Inhibition @ 10 uM": -1.43}, {"smiles": "CC1(C)CC(NS(=O)(=O)c2ccc(F)cc2)CC(C)(C)N1", "% Inhibition @ 10 uM": -10.1}, {"smiles": "CCOC(=O)C1=C(O)/C(=C\\c2ccc(-c3cc(Cl)cc(Cl)c3)o2)N=C1C", "% Inhibition @ 10 uM": -6.44}, {"smiles": "O=C(O)c1ccccc1C(=O)Nc1ccccc1C#Cc1ccc(Br)cc1", "% Inhibition @ 10 uM": 4.16}, {"smiles": "CCC(C)c1ccc(NC(=O)c2ccc(OC)c(OC)c2)cc1", "note": "(stereo not shown)", "% Inhibition @ 10 uM": -2.82}, {"smiles": "CN1CCN(c2ccc([N+](=O)[O-])c3cccnc23)CC1", "% Inhibition @ 10 uM": 2.5}, {"smiles": "CC(=O)c1ccc(N2CCN(CCC3=C(C)CCCC3(C)C)CC2)cc1", "% Inhibition @ 10 uM": 3.15}, {"smiles": "O=C(OC1CS(=O)(=O)CC1N(Cc1ccccc1)C(=O)Oc1ccccc1)c1ccccc1", "note": "(stereo not shown)", "% Inhibition @ 10 uM": -0.274}, {"smiles": "O=C(O)c1cc(O)nc(O)c1", "% Inhibition @ 10 uM": 2.62}, {"smiles": "COc1ccc(/C=C2\\SC(Nc3ccc(F)cc3)=NC2=O)c(OC)c1OC", "% Inhibition @ 10 uM": 0.931}, {"smiles": "COC(=O)[C@@]1(C)CC[C@]2(C)CC[C@]3(C)C(=CC(=O)C4[C@@]5(C)CCC(O)C(C)(C)C5CC[C@]43C)C2C1", "note": "(stereo partly shown)", "% Inhibition @ 10 uM": 0.51}, {"smiles": "Clc1ccc(N2CCN(Cc3cccc(Cl)c3)CC2)cc1", "% Inhibition @ 10 uM": 1.48}, {"smiles": "O=C(c1cc2ncc(Br)cn2n1)N1CCCCC1", "% Inhibition @ 10 uM": -5.11}, {"smiles": "COc1ccccc1CN1CCN(Cc2ccccc2Cl)CC1", "% Inhibition @ 10 uM": -2.32}, {"smiles": "CCCOc1ccc(N2CC(C(=O)Nc3ccc(Br)cc3C)CC2=O)cc1", "note": "(stereo not shown)", "% Inhibition @ 10 uM": 2.53}, {"smiles": "COC(=O)C1=NNC2C(=O)N(c3ccc(OC)cc3)C(=O)C12", "note": "(stereo not shown)", "% Inhibition @ 10 uM": 1.54}, {"smiles": "CC1(C)C(c2ccccc2)=NC(c2ccc(F)cc2)N1O", "note": "(stereo not shown)", "% Inhibition @ 10 uM": -1.4}, {"smiles": "CC12CN(Cc3ccccc3)CC(C)(CN(Cc3ccccc3Br)C1)C2", "% Inhibition @ 10 uM": -4.03}, {"smiles": "Cc1c(C#N)sc2nc(-c3ccccc3)nc(/N=C/N(C)C)c12", "% Inhibition @ 10 uM": -0.597}, {"smiles": "Nc1nc(-c2ccccc2)nn1S(=O)(=O)c1ccccc1", "% Inhibition @ 10 uM": 1.25}, {"smiles": "COc1ccc(Cl)cc1/C=C1\\SC(=S)NC1=O", "% Inhibition @ 10 uM": 0.392}, {"smiles": "CC(C)c1c(O)cc(-c2cccnc2)n(-c2ccccc2)c1=O", "% Inhibition @ 10 uM": 3.05}, {"smiles": "CCOC(=O)/C(=C\\C=C\\N1CCOCC1)C(C)=O", "% Inhibition @ 10 uM": 7.24}, {"smiles": "c1ccc2c(c1)CN(CCN1CCCC1)C2", "% Inhibition @ 10 uM": 0.722}, {"smiles": "Cc1sc(NC(=O)CCC(=O)O)nc1-c1ccc(F)cc1", "% Inhibition @ 10 uM": 0.727}, {"smiles": "Cc1cc(C)c2c(C)c(C(=O)N(Cc3sccc3C)C3CCS(=O)(=O)C3)oc2c1", "note": "(stereo not shown)", "% Inhibition @ 10 uM": 0.569}, {"smiles": "COCCCNc1nc2c(-c3ccc(Cl)cc3)nnn2c2ccccc12", "% Inhibition @ 10 uM": -2.92}, {"smiles": "Cn1c(=O)c2nc3ccc(N)cc3nc2n(C)c1=O", "% Inhibition @ 10 uM": -0.807}, {"smiles": "O=C1NC2(CCN(C(=O)c3cccc(Cl)c3)CC2)N=C1c1ccccc1", "% Inhibition @ 10 uM": 1.76}, {"smiles": "O=C(O)CSC(=S)N1CCCCC1", "% Inhibition @ 10 uM": -3.72}, {"smiles": "CC(C)(C)SCCNC(=O)CN(c1cccc(Br)c1)S(C)(=O)=O", "% Inhibition @ 10 uM": -1.11}, {"smiles": "CN(CCCNC(=O)C1c2ccccc2C(=O)N(C)C1c1cccs1)Cc1ccccc1", "note": "(stereo not shown)", "% Inhibition @ 10 uM": -6.05}, {"smiles": "O=C(NC1CCCc2ccccc21)c1cc(-c2ccc(F)cc2)n[nH]1", "note": "(stereo not shown)", "% Inhibition @ 10 uM": 2.11}, {"smiles": "CC(C)OCCCNC(=O)CN1N=C(c2ccc(Cl)cc2)CCC1=O", "% Inhibition @ 10 uM": 3.59}, {"smiles": "O=C(Cc1ccccc1)N1CCN(Cc2ccccc2)CC1", "% Inhibition @ 10 uM": -4.3}, {"smiles": "CCN1CCCC1CNC(=O)Cn1ncc2c(C)n(Cc3ccc(F)cc3)c(C)c2c1=O", "note": "(stereo not shown)", "% Inhibition @ 10 uM": -5.81}, {"smiles": "Cc1cc(C)c2c(NC(=O)c3ccccc3Cl)c(C(=O)NCc3ccco3)sc2n1", "% Inhibition @ 10 uM": -3.34}, {"smiles": "CC(C)(C)c1[nH]nc2c1C(c1cc(Br)ccc1F)C(C#N)=C(N)O2", "note": "(stereo not shown)", "% Inhibition @ 10 uM": -0.661}, {"smiles": "CC(NC(=O)c1ccc(Br)cc1)C1COc2ccccc2O1", "note": "(stereo not shown)", "% Inhibition @ 10 uM": 3.24}, {"smiles": "O=C(Cn1ncn2cccc2c1=O)N1CCC2(CC1)OCCO2", "% Inhibition @ 10 uM": -0.542}, {"smiles": "COc1ccc(-c2c(C)nn3c(O)c4c(nc23)CCCC4)cc1", "% Inhibition @ 10 uM": -0.267}, {"smiles": "Cc1ccc2c(c1)-c1ccccc1C2=O", "% Inhibition @ 10 uM": 1.76}, {"smiles": "OCC1CCCN1Cc1cccc(Cl)c1Cl", "note": "(stereo not shown)", "% Inhibition @ 10 uM": -4.75}, {"smiles": "C#CCn1cc(/C=C2/NC(=O)N(CC(=O)Nc3cccc(C)c3)C2=O)c2ccccc21", "% Inhibition @ 10 uM": -12.3}, {"smiles": "Cc1ccc(Cc2nnc(C(=O)NCCC(C)C)o2)cc1", "% Inhibition @ 10 uM": -1.68}, {"smiles": "COc1cc(/C=C2\\Sc3ccccc3C2=O)ccc1OCC#N", "% Inhibition @ 10 uM": -4.67}, {"smiles": "Cc1occc1C(=O)N1CCN(c2ccccc2)CC1", "% Inhibition @ 10 uM": -0.171}, {"smiles": "COC(=O)c1c(NC(=O)c2c(-c3ccccc3Cl)noc2C)sc2c1CCCC2", "% Inhibition @ 10 uM": 11.8}, {"smiles": "O=c1c2ccccc2n2c(-c3ccc(Cl)cc3)nnc2n1Cc1ccccc1", "% Inhibition @ 10 uM": 1.68}, {"smiles": "CCC(C)NC(=O)C1CCCN(S(=O)(=O)c2ccc3[nH]c(-c4ccccc4)nc3c2)C1", "note": "(stereo not shown)", "% Inhibition @ 10 uM": 0.589}, {"smiles": "O=C(Cn1ncc2ccc(Cl)cc21)NCc1cccs1", "% Inhibition @ 10 uM": 3.84}, {"smiles": "O=c1c2ccccc2nc2n1CCN2Cc1ccc(Cl)cc1", "% Inhibition @ 10 uM": 4.69}, {"smiles": "O=C(NCc1cccnc1)c1ccc(Cn2c(SCc3ccccc3F)nc3ccncc32)cc1", "% Inhibition @ 10 uM": -1.92}, {"smiles": "O=C(Nc1ccc(Cl)cc1C(=O)NCC1CCCO1)c1ccc(Cl)cc1Cl", "note": "(stereo not shown)", "% Inhibition @ 10 uM": -3.09}, {"smiles": "CC(Oc1ccc(C(=O)Nc2ccc(F)cc2)cc1)C(=O)O", "note": "(stereo not shown)", "% Inhibition @ 10 uM": -1.6}, {"smiles": "C=Cc1ccc(Cn2c(C(=O)O)c(CNCc3ccccc3F)c3ccc(C)cc32)cc1", "% Inhibition @ 10 uM": 10.2}, {"smiles": "COc1cc(C2C(C#N)=C(N)Oc3[nH]nc(C)c32)ccc1OCc1ccc(Cl)cc1", "note": "(stereo not shown)", "% Inhibition @ 10 uM": -0.105}, {"smiles": "COc1cccc(-c2noc(-c3ccc4c(c3)OCO4)n2)c1", "% Inhibition @ 10 uM": 4.18}, {"smiles": "CCCCc1nc(N)c(C#N)c(-c2ccccc2)c1CCC", "% Inhibition @ 10 uM": 97.8}, {"smiles": "OC1CCN(Cc2ccc(Cl)cc2)CC1", "% Inhibition @ 10 uM": -5.41}, {"smiles": "O=C(NCc1ccccc1)c1cnn2c(C(F)(F)F)cc(-c3ccc(Br)cc3)nc12", "% Inhibition @ 10 uM": 2.32}, {"smiles": "CN1CCN(S(=O)(=O)c2ccc3ccccc3c2)CC1", "% Inhibition @ 10 uM": -3.27}, {"smiles": "CN1C(=O)/C(=C2\\SC(=O)N(Cc3ccccc3)C2=O)c2ccccc21", "% Inhibition @ 10 uM": -2.17}]}]}
